Measurements taken from the antibiotic and cytotoxicity screens of Wong et al. (2023).
The list shows a part of the results.

Key:
[1] = test system: HSkMC (human skeletal muscle cells); assay: cytotoxicity call (relative viability < 0.9); conditions: 10 µM
[2] = test system: HepG2; assay: cytotoxicity call (relative viability < 0.9); conditions: 10 µM
[3] = test system: S. aureus RN4220; assay: growth inhibition call (relative growth <= 0.2); conditions: 50 µM

| Structure (SMILES) | cytotoxicity call [1] | cytotoxicity call [2] | growth inhibition call [3] |
| --- | --- | --- | --- |
| Cc1noc(C)c1NC(=O)Nc1ccc2c(c1)C(=O)N([C@@H](C)CO)C[C@@H](C)[C@H](CN(C)CC1CCCCC1)OCCCC[C@H](C)O2 | inactive | inactive | inactive |
| C[C@H]1CCCCO[C@H](CN(C)Cc2ccccc2)[C@@H](C)CN([C@@H](C)CO)C(=O)c2cc(NC(=O)CCC(F)(F)F)ccc2O1 | inactive | inactive | inactive |
| O=C(O)c1cc(O)c2c(O)c3c(O[C@H]4O[C@H](CO)[C@@H](O)[C@H](O)[C@H]4O)cccc3c(-c3c4cc(C(=O)O)cc(O)c4c(O)c4c(O[C@H]5O[C@H](CO)[C@@H](O)[C@H](O)[C@H]5O)cccc34)c2c1 | inactive | active | inactive |
| CCOC(=O)Cn1c(=O)c2c(OC)ccnc2n(C)c1=O | inactive | inactive | inactive |
| CC(C)NC(=O)Nc1ccc2c(c1)C(=O)N(C)[C@@H]1CC[C@H](CC(=O)NCc3ccc(F)cc3)O[C@@H]1CO2 | inactive | inactive | inactive |
| O=C(C[C@@H]1CC[C@H]2[C@@H](COC[C@@H](O)CN2C(=O)Nc2cc(Cl)cc(Cl)c2)O1)N1CCOCC1 | inactive | inactive | active |
| COc1ccc([Si](C)(C)[C@@H]2[C@@H](CCO)O[C@]3(C(=O)N(Cc4ccc(N5C(=O)c6ccccc6Oc6ccccc65)cc4)c4ccccc43)[C@H]2C)cc1 | inactive | active | inactive |
| CCCNC(=O)Cc1nnc[nH]1 | inactive | inactive | inactive |
| C[C@H](CO)N1C[C@H](C)[C@H](CN(C)Cc2ccncc2)Oc2ccc(NC(=O)CCN3CCOCC3)cc2C1=O | inactive | inactive | inactive |
| C[C@H]1CN([C@@H](C)CO)C(=O)c2cc(NS(C)(=O)=O)ccc2O[C@@H]1CN(C)C(=O)Nc1ccc2c(c1)OCO2 | inactive | inactive | inactive |
| CCCOc1ccc2nc(NC(=O)OC)[nH]c2c1 | inactive | active | inactive |
| Cc1ccc(-c2cnc3c(c2)C(=O)N([C@@H](C)CO)C[C@H](C)[C@@H](CN(C)C(=O)Cc2ccncc2)O3)cc1 | inactive | inactive | inactive |
| CC(C)N1CC=C[C@@]23O[C@@H]4C=CCCOC(=O)[C@@H]4[C@H]2C(=O)N(CCO)[C@@H]3C1=O | inactive | inactive | inactive |
| COc1ccc([Si](C)(C)[C@@H]2[C@@H](CCn3cc(CCOC(=O)NCCCCCC(=O)NO)nn3)O[C@]3(C(=O)N(Cc4ccc(I)cc4)c4ccccc43)[C@H]2C)cc1 | inactive | inactive | inactive |
| Cc1noc(C)c1NC(=O)Nc1ccc2c(c1)C(=O)N([C@H](C)CO)C[C@@H](C)[C@@H](CN(C)C(=O)Nc1cccc3ccccc13)O2 | inactive | inactive | inactive |
| O=c1[nH]ncn1-c1ccccc1 | inactive | inactive | inactive |
| C[C@H]1CN([C@@H](C)CO)S(=O)(=O)c2ccc(-c3cncnc3)cc2O[C@@H]1CN(C)C(=O)NC1CCCC1 | inactive | inactive | inactive |
| C[C@H]1CN([C@@H](C)CO)C(=O)c2cccc(NS(=O)(=O)c3cn(C)cn3)c2O[C@@H]1CN(C)C(=O)Nc1ccc(F)cc1 | inactive | inactive | inactive |
| C[C@@H]1CN([C@@H](C)CO)C(=O)c2cc(NS(=O)(=O)c3ccc(F)cc3)ccc2O[C@@H](C)CCCCO[C@H]1CN(C)C(=O)Cc1ccccc1 | inactive | inactive | inactive |
| CCS(=O)(=O)N1Cc2cc(C(=O)NCCOC)nc(-c3cccc(-c4ccncc4)c3)c2[C@@H]1CCO | inactive | inactive | inactive |
| C[C@H](CO)N1C[C@H](C)[C@H](CN(C)S(=O)(=O)c2cccc(F)c2)Oc2ncc(C#Cc3ccccc3)cc2C1=O | inactive | inactive | inactive |
| CC(C)NC(=O)N(C)C[C@@H]1Oc2c(NS(=O)(=O)c3cccs3)cccc2C(=O)N([C@H](C)CO)C[C@H]1C | inactive | inactive | inactive |
| C[C@@H]1CCCCO[C@@H](CN(C)Cc2ccncc2)[C@@H](C)CN([C@@H](C)CO)C(=O)c2cc(NC(=O)NC3CCCCC3)ccc2O1 | inactive | inactive | inactive |
| C[C@@H]1CCCCO[C@@H](CN(C)S(=O)(=O)c2cn(C)cn2)[C@H](C)CN([C@@H](C)CO)C(=O)c2cc(NS(C)(=O)=O)ccc2O1 | inactive | inactive | inactive |
| COc1ccc(S(=O)(=O)Nc2cccc3c2O[C@@H](CN(C)Cc2ccc(-c4ccccc4)cc2)[C@H](C)CN([C@H](C)CO)C3=O)cc1 | inactive | inactive | inactive |
| Cc1ccc(-c2ccc3c(c2)O[C@H](CN(C)C(=O)Nc2ccc(C(F)(F)F)cc2)[C@@H](C)CN([C@@H](C)CO)S3(=O)=O)cc1 | active | inactive | inactive |
| COc1ccc(CN(C)C[C@H]2OCCCC[C@@H](C)Oc3ccc(NS(=O)(=O)c4ccc(F)cc4)cc3C(=O)N([C@@H](C)CO)C[C@@H]2C)cc1 | inactive | inactive | inactive |
